# Data published in PMC12820563.
# The other results are listed elsewhere or left out. The list includes weakly bound sequences.
# Target: T1, MBP-FoxP3dN (UniProt Q99JB6)
# T1 sequence: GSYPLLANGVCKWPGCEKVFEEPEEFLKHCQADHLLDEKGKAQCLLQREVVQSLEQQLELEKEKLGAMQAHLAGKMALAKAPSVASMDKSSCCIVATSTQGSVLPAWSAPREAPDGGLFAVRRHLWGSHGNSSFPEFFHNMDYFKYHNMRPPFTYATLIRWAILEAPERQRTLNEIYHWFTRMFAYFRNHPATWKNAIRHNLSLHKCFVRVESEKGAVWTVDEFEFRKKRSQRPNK
# Test: PD-seq (MBP pull-down with sequencing)
# Details: 20 mM Tris-HCl pH 7.5, 100 mM NaCl, 1.5 mM MgCl2, 0.4 uM protein, 0.1 uM dsDNA library, 30 min, room temperature, amylose pull-down; high values mean tight binding; double strand, one strand shown
row,Sequence,binding signal (RPM ratio (pull-down/input))
1,GATGATTGTTCTCCCAGCTGATGAATTTGATTGATCGAGTAAACAAATTTTCCTAATCTTTCTGTTCAAGCGCCATCTAC,2.23
2,GATGATTGTTCTCCCAGCTGATGAATTGCCCCCATCGAGTAAACAAATTTTCCTAATCTTTCTGTTCAAGCGCCATCTAC,0.513
3,GATGATTGTTCTCCCAGCTGATGAATTCCTCGTGTCGAGTAAACAAATTTTCCTAATCTTTCTGTTCAAGCGCCATCTAC,0.332
4,GATGATTGTTCTCCCAGCTGATGAATTGAGACATTCGAGTAAACAAATTTTCCTAATCTTTCTGTTCAAGCGCCATCTAC,1.12
5,GATGATTGTTCTCCCAGCTGATGAATTGGACTAGTCGAGTAAACAAATTTTCCTAATCTTTCTGTTCAAGCGCCATCTAC,0.255
6,GATGATTGTTCTCCCAGCTGATGAATTGGCCCAATCGAGTAAACAAATTTTCCTAATCTTTCTGTTCAAGCGCCATCTAC,0.308
7,GATGATTGTTCTCCCAGCTGATGAATTTAGCCGCTCGAGTAAACAAATTTTCCTAATCTTTCTGTTCAAGCGCCATCTAC,1.56
8,GATGATTGTTCTCCCAGCTGATGAATTATATGTCTCGAGTAAACAAATTTTCCTAATCTTTCTGTTCAAGCGCCATCTAC,1.18
9,GATGATTGTTCTCCCAGCTGATGAATTTCCGGCATCGAGTAAACAAATTTTCCTAATCTTTCTGTTCAAGCGCCATCTAC,0.649
10,GATGATTGTTCTCCCAGCTGATGAATTTGTAGAGTCGAGTAAACAAATTTTCCTAATCTTTCTGTTCAAGCGCCATCTAC,1.65
11,GATGATTGTTCTCCCAGCTGATGAATTTAGATGGTCGAGTAAACAAATTTTCCTAATCTTTCTGTTCAAGCGCCATCTAC,0.829
12,GATGATTGTTCTCCCAGCTGATGAATTTATGCGATCGAGTAAACAAATTTTCCTAATCTTTCTGTTCAAGCGCCATCTAC,0.984
13,GATGATTGTTCTCCCAGCTGATGAATTTTCTGGCTCGAGTAAACAAATTTTCCTAATCTTTCTGTTCAAGCGCCATCTAC,0.164
14,GATGATTGTTCTCCCAGCTGATGAATTCAGCCCATCGAGTAAACAAATTTTCCTAATCTTTCTGTTCAAGCGCCATCTAC,0.824
15,GATGATTGTTCTCCCAGCTGATGAATTTTTTTGGTCGAGTAAACAAATTTTCCTAATCTTTCTGTTCAAGCGCCATCTAC,0.314
16,GATGATTGTTCTCCCAGCTGATGAATTCACTGTCTCGAGTAAACAAATTTTCCTAATCTTTCTGTTCAAGCGCCATCTAC,0.45
17,GATGATTGTTCTCCCAGCTGATGAATTTACGTCATCGAGTAAACAAATTTTCCTAATCTTTCTGTTCAAGCGCCATCTAC,1.15
18,GATGATTGTTCTCCCAGCTGATGAATTTTGGCATTCGAGTAAACAAATTTTCCTAATCTTTCTGTTCAAGCGCCATCTAC,5.56
19,GATGATTGTTCTCCCAGCTGATGAATTCCTTCAGTCGAGTAAACAAATTTTCCTAATCTTTCTGTTCAAGCGCCATCTAC,0.231
20,GATGATTGTTCTCCCAGCTGATGAATTGGGAACATCGAGTAAACAAATTTTCCTAATCTTTCTGTTCAAGCGCCATCTAC,0.398
21,GATGATTGTTCTCCCAGCTGATGAATTCGGTTGATCGAGTAAACAAATTTTCCTAATCTTTCTGTTCAAGCGCCATCTAC,1.64

row,Sequence,binding signal (RPM ratio (pull-down/input))
1,GATGATTGTTCTCCCAGCTGATGAATTTGGACCTTCGAGTAAACAAATTTTCCTAATCTTTCTGTTCAAGCGCCATCTAC,0.415
2,GATGATTGTTCTCCCAGCTGATGAATTGCTATGGTCGAGTAAACAAATTTTCCTAATCTTTCTGTTCAAGCGCCATCTAC,0.866
3,GATGATTGTTCTCCCAGCTGATGAATTCCTAACTTCGAGTAAACAAATTTTCCTAATCTTTCTGTTCAAGCGCCATCTAC,0.231
4,GATGATTGTTCTCCCAGCTGATGAATTTGTGGTATCGAGTAAACAAATTTTCCTAATCTTTCTGTTCAAGCGCCATCTAC,4.85
5,GATGATTGTTCTCCCAGCTGATGAATTCTTAGTTTCGAGTAAACAAATTTTCCTAATCTTTCTGTTCAAGCGCCATCTAC,0.302
6,GATGATTGTTCTCCCAGCTGATGAATTAAAACCCTCGAGTAAACAAATTTTCCTAATCTTTCTGTTCAAGCGCCATCTAC,0.199
7,GATGATTGTTCTCCCAGCTGATGAATTCAACCAATCGAGTAAACAAATTTTCCTAATCTTTCTGTTCAAGCGCCATCTAC,0.296
8,GATGATTGTTCTCCCAGCTGATGAATTTAGCAGATCGAGTAAACAAATTTTCCTAATCTTTCTGTTCAAGCGCCATCTAC,0.422
9,GATGATTGTTCTCCCAGCTGATGAATTGACTAACTCGAGTAAACAAATTTTCCTAATCTTTCTGTTCAAGCGCCATCTAC,0.383
10,GATGATTGTTCTCCCAGCTGATGAATTTAGACATTCGAGTAAACAAATTTTCCTAATCTTTCTGTTCAAGCGCCATCTAC,1.3
11,GATGATTGTTCTCCCAGCTGATGAATTCTTATCTTCGAGTAAACAAATTTTCCTAATCTTTCTGTTCAAGCGCCATCTAC,0.32
12,GATGATTGTTCTCCCAGCTGATGAATTGCTGGCGTCGAGTAAACAAATTTTCCTAATCTTTCTGTTCAAGCGCCATCTAC,0.67
13,GATGATTGTTCTCCCAGCTGATGAATTGTAAACTTCGAGTAAACAAATTTTCCTAATCTTTCTGTTCAAGCGCCATCTAC,1.05
14,GATGATTGTTCTCCCAGCTGATGAATTACCCGCGTCGAGTAAACAAATTTTCCTAATCTTTCTGTTCAAGCGCCATCTAC,0.464
15,GATGATTGTTCTCCCAGCTGATGAATTCCCGAACTCGAGTAAACAAATTTTCCTAATCTTTCTGTTCAAGCGCCATCTAC,0.183
16,GATGATTGTTCTCCCAGCTGATGAATTGAGCGATTCGAGTAAACAAATTTTCCTAATCTTTCTGTTCAAGCGCCATCTAC,0.967
17,GATGATTGTTCTCCCAGCTGATGAATTGGCATGGTCGAGTAAACAAATTTTCCTAATCTTTCTGTTCAAGCGCCATCTAC,0.91
18,GATGATTGTTCTCCCAGCTGATGAATTGTGGTTATCGAGTAAACAAATTTTCCTAATCTTTCTGTTCAAGCGCCATCTAC,2.03
19,GATGATTGTTCTCCCAGCTGATGAATTTGCTAGGTCGAGTAAACAAATTTTCCTAATCTTTCTGTTCAAGCGCCATCTAC,1.49
20,GATGATTGTTCTCCCAGCTGATGAATTCCCAGCTTCGAGTAAACAAATTTTCCTAATCTTTCTGTTCAAGCGCCATCTAC,0.272
21,GATGATTGTTCTCCCAGCTGATGAATTAGCATTTTCGAGTAAACAAATTTTCCTAATCTTTCTGTTCAAGCGCCATCTAC,4

row,Sequence,binding signal (RPM ratio (pull-down/input))
1,GATGATTGTTCTCCCAGCTGATGAATTCTCTTATTCGAGTAAACAAATTTTCCTAATCTTTCTGTTCAAGCGCCATCTAC,0.39
2,GATGATTGTTCTCCCAGCTGATGAATTCTTGCGATCGAGTAAACAAATTTTCCTAATCTTTCTGTTCAAGCGCCATCTAC,0.576
3,GATGATTGTTCTCCCAGCTGATGAATTGTAGATGTCGAGTAAACAAATTTTCCTAATCTTTCTGTTCAAGCGCCATCTAC,0.628
4,GATGATTGTTCTCCCAGCTGATGAATTCAGCGGGTCGAGTAAACAAATTTTCCTAATCTTTCTGTTCAAGCGCCATCTAC,0.441
5,GATGATTGTTCTCCCAGCTGATGAATTAGCACGCTCGAGTAAACAAATTTTCCTAATCTTTCTGTTCAAGCGCCATCTAC,0.482
6,GATGATTGTTCTCCCAGCTGATGAATTGTGAGCATCGAGTAAACAAATTTTCCTAATCTTTCTGTTCAAGCGCCATCTAC,1.37
7,GATGATTGTTCTCCCAGCTGATGAATTATCCACTTCGAGTAAACAAATTTTCCTAATCTTTCTGTTCAAGCGCCATCTAC,0.334
8,GATGATTGTTCTCCCAGCTGATGAATTCGAACCTTCGAGTAAACAAATTTTCCTAATCTTTCTGTTCAAGCGCCATCTAC,0.278
9,GATGATTGTTCTCCCAGCTGATGAATTTTCCCCATCGAGTAAACAAATTTTCCTAATCTTTCTGTTCAAGCGCCATCTAC,0.241
10,GATGATTGTTCTCCCAGCTGATGAATTTCCCCATTCGAGTAAACAAATTTTCCTAATCTTTCTGTTCAAGCGCCATCTAC,0.261
11,GATGATTGTTCTCCCAGCTGATGAATTGGTTTTCTCGAGTAAACAAATTTTCCTAATCTTTCTGTTCAAGCGCCATCTAC,2.95
12,GATGATTGTTCTCCCAGCTGATGAATTCGATCGATCGAGTAAACAAATTTTCCTAATCTTTCTGTTCAAGCGCCATCTAC,0.283
13,GATGATTGTTCTCCCAGCTGATGAATTGCTTTGTTCGAGTAAACAAATTTTCCTAATCTTTCTGTTCAAGCGCCATCTAC,1.58
14,GATGATTGTTCTCCCAGCTGATGAATTTTCACGTTCGAGTAAACAAATTTTCCTAATCTTTCTGTTCAAGCGCCATCTAC,0.284
15,GATGATTGTTCTCCCAGCTGATGAATTATTATCGTCGAGTAAACAAATTTTCCTAATCTTTCTGTTCAAGCGCCATCTAC,0.943
16,GATGATTGTTCTCCCAGCTGATGAATTCCTACCCTCGAGTAAACAAATTTTCCTAATCTTTCTGTTCAAGCGCCATCTAC,0.239
17,GATGATTGTTCTCCCAGCTGATGAATTCCCAAGCTCGAGTAAACAAATTTTCCTAATCTTTCTGTTCAAGCGCCATCTAC,0.226
18,GATGATTGTTCTCCCAGCTGATGAATTACTGCAATCGAGTAAACAAATTTTCCTAATCTTTCTGTTCAAGCGCCATCTAC,2.62
19,GATGATTGTTCTCCCAGCTGATGAATTTTCCCTATCGAGTAAACAAATTTTCCTAATCTTTCTGTTCAAGCGCCATCTAC,0.258
20,GATGATTGTTCTCCCAGCTGATGAATTGCGAGACTCGAGTAAACAAATTTTCCTAATCTTTCTGTTCAAGCGCCATCTAC,0.8
21,GATGATTGTTCTCCCAGCTGATGAATTGGCTGATTCGAGTAAACAAATTTTCCTAATCTTTCTGTTCAAGCGCCATCTAC,0.802
